Data: the supplement of paper PMC10126150
Values marked as one replicate rest on one cluster of the flow cell; about a third of the high ones do not repeat.

System: ATP
Assay: switch fluorescence ratio, 500 uM ATP over buffer (Cy3 cluster intensity, sum of 5 cycles each) (fold (ratio)); higher = stronger signal-on switching upon ATP binding; sequences stand for … in TCGTCGGCAGCGTCAGATGTGTATAAGAGACAGTTTTTTTTTTTTTTTTTTTTTTTTT…TC
Details: aptamer strand: ATP DNA aptamer (quencher-CACCTGGGGGAGTATTGCGGAGGAAGG + anchor), 100 nM annealed; ATP concentration: 500 uM; one replicate
Procedure, shortened: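 The fluorescence ratio divides summed target-cycle Cy3 intensity by summed buffer-cycle Cy3 intensity for each cluster and is averaged per switch-domain sequence. Cy3-labelled switching-strand clusters on a modified Illumina MiSeq flow-cell were annealed to 100 nM quencher-labelled ATP aptamer, then imaged in selection buffer and again after 15 min with 500 uM ATP at 22 °C. Five such cycles were run, with NaOH stripping and re-annealing between them, and clusters outside 100-1000 RFU were excluded.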
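Also: ATP exposure 15 min at 22 °C before imaging.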

Sequence | switch fluorescence ratio
GATGTTGTAA | 1.08
CGTTACTATT | 1.02
ATGATGACGG | 1.03
TTTGGGCTTA | 1.16
AGGGTATACC | 1.02
GGCAGATCGC | 0.963
CTGCGCCGGT | 1.04
CTTGTCCAAA | 0.991
GGTATTCGTG | 0.983
GCCACAGAAA | 0.997
GCGGCGAAAG | 0.994
TGACGTCTTA | 1
TCTGTAAGCT | 1.04
CACTAGGTGT | 2.09
CTCTCTACTT | 0.995
GGGTTTGGTC | 0.99
GACTTGGCAT | 1.03
GATTGTGTCA | 1
GCATGACCCA | 1.03
GGTAAAGGTG | 3.43
GGTGAAGATG | 0.928
CCCGGCTATT | 1.1
CCGCACCCCA | 3.16
CGTCGTTCAT | 0.948
AGTAAAGCAT | 1.03

Sequence | switch fluorescence ratio
CATATGGTCT | 1.03
AGACAATGAG | 1.03
GCAATCTTTC | 1.28
TTTTGACATA | 1
ATGTTACTAT | 1
CTCCAACCGG | 1.08
AGTACTGTTG | 1
ATTACATTGA | 1.05
TATTCGTATA | 1.19
TAGAGTGTGC | 0.989
TAACTAGTCA | 1
GCACTGGTGC | 0.998
GGTTCTCTAA | 1.01
CCATTGGGAA | 1.02
CCTCTCGACG | 1.27
AGAATCGAGA | 0.983
GCTTTCTCCC | 2.83
TAATCTAAGG | 0.957
GATCGTACGG | 1.6
TGGGCCTGTT | 0.896
TTCTATTCAA | 1.08
GCCCTAGCGA | 1.02
TCTACGAGGG | 1.03
TATCTTGACG | 1
TTCTTTCCCC | 1.09

Sequence | switch fluorescence ratio
TACCGGGTAT | 0.973
TAGGGAGCGA | 1
ATCCCTGGGT | 0.989
ATAACATCTA | 1.04
GACGAGCTCT | 1.05
TACTAATGAC | 0.98
TAAGTTCTGA | 1.02
GGTGACTTAC | 1.21
GTCATAAGCG | 1.01
GTTTGGATCA | 1.02
AAAGATAAAA | 0.974
TTAATCCGTT | 1.02
CGGCGGGTTC | 0.997
TAGGAGGGCG | 1.03
GGGTACCGTC | 0.995
AGGGAAACCT | 2.76
CTCTTTTTAG | 0.997
GGTCGCGGGC | 0.967
CCTGTAAGGT | 1.09
GGGGCCTATA | 1.05
TTCGTTAGGG | 0.95
AGAATATAAA | 1.01
TTTGTGCCGC | 1.03
TTTCTGATGT | 0.958
GGAGGGTCAG | 0.945

Sequence | switch fluorescence ratio
TGTGTACATG | 1.01
TGACAGGGGG | 1.03
ACTCATCGTG | 1.01
CTTTTTATAG | 1.01
GAGCCAAATG | 0.978
TGCGTGTGCG | 1.02
GCCATTTCGT | 0.964
TATAGTCATC | 1
AGTTTTCCTT | 1.01
AGGTCGACCT | 0.95
TGGAATTAAA | 1.02
ACGTGCTGTT | 1.01
ACCAGTTTGG | 1
ACTATACGTC | 1.56
TAGACTATTG | 1.01
GTGAGAAGTA | 0.966
AAACTCGGCA | 1.21
ACCGTGTCCA | 0.97
CTATGCAAGC | 2.43
CGACCGCTCG | 1.07
AAACTCCCGT | 1.03
AGGCATCGTT | 0.981
ACTTGCTTCT | 0.975
GTTCCTGAGT | 1.03
TATTAGTCGC | 0.995

Sequence | switch fluorescence ratio
ATATATTTTT | 0.953
AAACGCGTCC | 1.14
TCAATCGTCA | 0.999
TCCTCTCGAC | 3.72
TTTGACGGCG | 0.96
TAGATGCTC | 1.18
TGCCGTATTG | 1
CTCGCATGAA | 1.77
GGGTTCAGAA | 0.97
TGACAAA | 1.04
TTTGGCTA | 0.948
CCGAAACAG | 1.7
ATGTTCCTTC | 1.02
CTTGCTAAAT | 0.933
AATATCGCGT | 0.98
AATCATTACT | 1.04
ATCTAAACCA | 1.05
GCTATTCCGC | 1.22
AATTACGGTA | 1.18
TAGGCAAAT | 0.989
ACGATCAACT | 1.01
GTAGGTACCT | 1.07
CCCACAGACG | 1.27
TTCGTGTGGG | 0.933
ATAAGAGACA | 1.03

Sequence | switch fluorescence ratio
CGGTGTTCGC | 0.962
AGATCAGTGG | 1
AGTCGTCGTG | 1.04
CGGCTGCCGT | 1.04
TGGTGGGAT | 1.02
TCCTTAGGGT | 0.987
AATCAGATCA | 0.971
AAGATCGATG | 0.978
TTTGCGCTGT | 1.2
TTAGCGTCT | 1.02
GCAGCGTCGT | 0.98
TTCTAGGATC | 1.04
ACCGCCGAGA | 0.998
CCGGCGGGTG | 1.27
TTTCGGGAG | 1.08
CTCTATTAAG | 0.972
CCTGAGAAAG | 1.03
GGTTCACGCA | 1.08
GAGGCCAGTC | 1.06
TTGTGACAGA | 1.11
ATATTGGTGC | 1.07
CCGCCCTTCG | 1.02
TGAATCCCAC | 1.09
AAGATTTCAG | 1.03
AAAAAGTACA | 1.07

Sequence | switch fluorescence ratio
TGAAAAATAT | 0.961
GTGACCGGGG | 0.98
ATCTTCCGAG | 3.34
GTGGAGAGCC | 1
AGTGAAATGC | 1.04
AATCAGCCGA | 1.01
GCAGGGGTCT | 0.999
AAGTGTAGGG | 1.04
CCCTTTAGAC | 1.01
GCGTCACGGC | 1.02
CTCTTGCTTG | 0.986
TTTTATCCCT | 1.04
TAAATCCAAT | 0.996
TCAGGAGGA | 0.994
GATGACCGCC | 1.22
TTATACCCGG | 1.03
GATGCACATC | 1.07
AAACATATAA | 1
CGTTATTGCC | 1.04
TTAAATCAG | 1.01
CCCGTTTTGA | 1.05
CGGTGCCTGC | 1.03
GGAGATTGAC | 1.07
CATGAGGGAA | 1.04
GGTAGAGGCA | 0.993

Sequence | switch fluorescence ratio
GAGTGCCTTG | 1.02
CGTGTCGAC | 1.02
GGATTATCGC | 0.985
ATTAGCGATT | 1.06
GTTTGTGATT | 0.974
CCAAAGCGCA | 2.14
GGACGATTTT | 0.955
TAAAAAGATA | 1.28
GGGAGTTGGT | 0.999
GGCTCTCATG | 0.989
GGTTAGTTAG | 1.02
CCACAATGTA | 1.22
GTAAGAAGTT | 1.11
ATCGCTTTA | 1.01
TTGTAATCAA | 0.998
CGTATCTTA | 0.964
CACGGCAACT | 1.34
AAAAGGCTGG | 1.02
AACCTACTGT | 1.14
CATGGGTCTC | 1
TAAATAATGG | 0.999
GTAACTCGC | 1.04
GTAAGTGGGG | 1
ATACTGCCAT | 1.18
ACATCCAGCA | 1.05
